This is one part of the list. At the low end of the ranking the order means little.
The sequences below were run against T1, GST-Rok-C97-191 (UniProt O34857) (assay: protein binding microarray). Conditions: Rok is a gene silencer of Bacillus subtilis; high values mean tight binding; most listed sequences are background and not binding sites; double strand, one strand shown.
T1 sequence: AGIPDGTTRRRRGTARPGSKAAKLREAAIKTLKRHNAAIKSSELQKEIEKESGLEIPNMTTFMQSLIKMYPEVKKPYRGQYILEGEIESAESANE
ACTTGAAA gave a binding signal of 0.0997 E-score.
In the case of ACAAGGAC, the binding signal is reported as -0.136 E-score.
For CCTCAGAA, the binding signal was -0.071 E-score.
In the case of AAGCGTGG, the binding signal is reported as -0.102 E-score.
In the case of GAGGCTCC, the binding signal is reported as -0.255 E-score.
Sequence TAATATTA has a binding signal of 0.287 E-score.
Sequence ACTCACCA has a binding signal of 0.157 E-score.
Sequence TGATTCAA has a binding signal of -0.139 E-score.
In the case of ATAGCGTG, the binding signal is reported as 0.00421 E-score.
CTAGGGCA gave a binding signal of -0.142 E-score.
Work on TCCCACGA yielded a binding signal of -0.189 E-score.
With CCTCACCA the binding signal was -0.151 E-score.
Sequence TACAGAAA has a binding signal of 0.14 E-score.
For AGTGACTA, the binding signal was 0.181 E-score.
In the case of CTGGCAAC, the binding signal is reported as -0.193 E-score.
Work on GTCGCTAA yielded a binding signal of 0.157 E-score.
With ATTAATGA the binding signal was 0.16 E-score.
Sequence GTTTCTGA has a binding signal of 0.0641 E-score.
TCACTCCA showed a binding signal of -0.121 E-score.
In the case of AATGCGTC, the binding signal is reported as 0.0333 E-score.
GCACTACA showed a binding signal of -0.0501 E-score.
For ACCCCCGA, the binding signal was -0.369 E-score.
Sequence GATGCACA has a binding signal of -0.0663 E-score.
AAAAAGTG was tested, and the binding signal was -0.0823 E-score.
For AACCCACA, the binding signal was 0.0239 E-score.
With AGTTTACG the binding signal was 0.227 E-score.
For GGCCGGAA, the binding signal was -0.216 E-score.
In the case of AATCATGG, the binding signal is reported as 0.0485 E-score.
ACGTAGTG gave a binding signal of 0.00856 E-score.
With CTTCCTAA the binding signal was 0.04 E-score.
Work on GACAGCCA yielded a binding signal of -0.00173 E-score.
With AGCAGTCA the binding signal was 0.0635 E-score.
TGGTGGAA showed a binding signal of -0.0962 E-score.
CAAGTGTA showed a binding signal of 0.217 E-score.
For AACTTAAC, the binding signal was 0.0579 E-score.
With AGTCAACT the binding signal was 0.173 E-score.
With ATGAAGGC the binding signal was -0.0722 E-score.
Work on AACTGTCT yielded a binding signal of -0.0968 E-score.
With AAGAGTAC the binding signal was 0.0437 E-score.
CCCGCTGA showed a binding signal of -0.08 E-score.
Sequence CTCAAATC has a binding signal of 0.118 E-score.
Work on CCCCAACC yielded a binding signal of -0.334 E-score.
CCAATGAA gave a binding signal of -0.197 E-score.
AGGTCAGC showed a binding signal of -0.22 E-score.
For AAGTGGCT, the binding signal was -0.0987 E-score.
Work on GGTGCAAC yielded a binding signal of -0.0642 E-score.
ACTCTTTG gave a binding signal of 0.0114 E-score.
Work on ACGTTGGG yielded a binding signal of -0.0548 E-score.
Sequence GCTCGGAC has a binding signal of -0.341 E-score.
GATTAATA gave a binding signal of 0.268 E-score.
With CTGCAATA the binding signal was -0.00883 E-score.
For ACCCGAGG, the binding signal was -0.144 E-score.
In the case of CCTCGCAA, the binding signal is reported as -0.0698 E-score.
AACAATGC gave a binding signal of -0.00209 E-score.
ATGATAAG gave a binding signal of 0.09 E-score.
In the case of GCAAGTTA, the binding signal is reported as 0.187 E-score.
CACCCGCA showed a binding signal of -0.149 E-score.
ATTAAATC gave a binding signal of 0.102 E-score.
With CCGACAGG the binding signal was -0.273 E-score.
In the case of GCATTCTA, the binding signal is reported as 0.105 E-score.
CAGTCATA gave a binding signal of 0.0934 E-score.
In the case of CGTGTTCC, the binding signal is reported as -0.18 E-score.
In the case of ACATAGGT, the binding signal is reported as 0.171 E-score.
CTGCAAGA was tested, and the binding signal was -0.151 E-score.
ACGTTATC gave a binding signal of 0.265 E-score.
Sequence ACAGGAGA has a binding signal of -0.199 E-score.
AAGATTCT was tested, and the binding signal was 0.206 E-score.
In the case of AAAGCACG, the binding signal is reported as -0.0701 E-score.
CCAGTAGA gave a binding signal of 0.176 E-score.
Sequence GACAACTA has a binding signal of 0.295 E-score.
For CCGGCACC, the binding signal was -0.324 E-score.
Work on ACATGGCC yielded a binding signal of -0.116 E-score.
With CAATCGTA the binding signal was 0.0615 E-score.
ATTGAAGC was tested, and the binding signal was 0.0717 E-score.
CCCACCCG gave a binding signal of -0.154 E-score.
GCTACTAA showed a binding signal of 0.229 E-score.
Work on AAAGAGTC yielded a binding signal of -0.188 E-score.
Work on TCTATCAA yielded a binding signal of 0.283 E-score.
AACTGCTG showed a binding signal of -0.0468 E-score.
Work on CCCTGCCC yielded a binding signal of -0.359 E-score.
CGCTGTTA gave a binding signal of 0.0922 E-score.
Work on GGCTTTGA yielded a binding signal of -0.27 E-score.
In the case of AGAACGAG, the binding signal is reported as -0.224 E-score.
AGTGCTGA showed a binding signal of -0.243 E-score.
For CCAATGGC, the binding signal was -0.09 E-score.
With AAAACTGG the binding signal was 0.0097 E-score.
CCGCGCTA gave a binding signal of 0.0263 E-score.
In the case of CAGCTTCA, the binding signal is reported as -0.133 E-score.
CGCTAGAG showed a binding signal of -0.0232 E-score.
AGAACCCG gave a binding signal of -0.0881 E-score.
With ATCCTCTG the binding signal was -0.0465 E-score.
AGCTAGGC gave a binding signal of -0.111 E-score.
ATCTATCA showed a binding signal of 0.451 E-score.
AATACATC gave a binding signal of 0.303 E-score.
AATAGTCG showed a binding signal of -0.0896 E-score.
GCCGATCA gave a binding signal of -0.154 E-score.
In the case of CTATGACC, the binding signal is reported as -0.00424 E-score.
Work on ACCCTGGG yielded a binding signal of -0.258 E-score.
With GATCATGC the binding signal was -0.111 E-score.
In the case of AACCAGTG, the binding signal is reported as -0.05 E-score.
AAGCAGGC gave a binding signal of -0.299 E-score.
Sequence GAGATACA has a binding signal of 0.165 E-score.
With CAAACCAG the binding signal was -0.17 E-score.
In the case of CAGGCCTC, the binding signal is reported as -0.336 E-score.
Sequence AGGCCAGC has a binding signal of -0.338 E-score.
Work on ACAAGACT yielded a binding signal of -0.0977 E-score.
AGCAGATG showed a binding signal of 0.175 E-score.
With CCTGGGAA the binding signal was -0.112 E-score.
In the case of CACTGTAC, the binding signal is reported as 0.044 E-score.
Work on ACACTCTG yielded a binding signal of -0.0681 E-score.
ACTGCCCT showed a binding signal of -0.164 E-score.
With CCTTTTCC the binding signal was -0.198 E-score.
Sequence CAAGGACG has a binding signal of -0.244 E-score.
GCCAGTGA gave a binding signal of -0.203 E-score.
With GCTCGCAC the binding signal was -0.254 E-score.
Sequence GTCGATCA has a binding signal of -0.0345 E-score.
AGTGACAA gave a binding signal of 0.155 E-score.
With CTAACGTC the binding signal was 0.0592 E-score.
Work on CCATTGTA yielded a binding signal of 0.192 E-score.
For ACTAATAT, the binding signal was 0.342 E-score.
ACGGCGCG was tested, and the binding signal was -0.12 E-score.
Work on AGTCCGAC yielded a binding signal of 0.0436 E-score.
With CAAGGTAG the binding signal was 0.0703 E-score.
CCTGCCAG showed a binding signal of -0.296 E-score.
In the case of CAAGTCCA, the binding signal is reported as -0.0464 E-score.
For CGCCCGCG, the binding signal was -0.254 E-score.
With AGCGACAC the binding signal was -0.0888 E-score.
Work on GCGGCGAA yielded a binding signal of 0.0285 E-score.
In the case of TCCGAAGA, the binding signal is reported as -0.0517 E-score.
Sequence CAATCGCA has a binding signal of 0.0441 E-score.
With TCTACACA the binding signal was 0.297 E-score.
GGCAAACC was tested, and the binding signal was 0.0213 E-score.
AAAGCTGT showed a binding signal of 0.147 E-score.
AGTGGCTC was tested, and the binding signal was -0.159 E-score.
CCACCCCA showed a binding signal of -0.195 E-score.
GCGATTCC was tested, and the binding signal was -0.0362 E-score.
For CAGACGTA, the binding signal was 0.0474 E-score.
AACACAGG showed a binding signal of -0.202 E-score.
For CCCTAGGC, the binding signal was -0.264 E-score.
Work on TAAAGCTA yielded a binding signal of 0.232 E-score.
AAGCTGAG was tested, and the binding signal was -0.294 E-score.
Work on ACGTTGAT yielded a binding signal of 0.0039 E-score.
With AACGATGA the binding signal was -0.0484 E-score.
With TAGGGTAA the binding signal was 0.0713 E-score.
In the case of CTGAGTGC, the binding signal is reported as -0.18 E-score.
With GGCTAGAC the binding signal was -0.152 E-score.
In the case of ATACGTAG, the binding signal is reported as 0.25 E-score.
ATACTAGA gave a binding signal of 0.305 E-score.
With CCACCTGC the binding signal was -0.193 E-score.
In the case of TACATGAA, the binding signal is reported as 0.0723 E-score.
For CAATTTAC, the binding signal was 0.357 E-score.
For ATGGTTTC, the binding signal was -0.0722 E-score.
In the case of AGTGGCCC, the binding signal is reported as -0.292 E-score.
For GTCGAAAA, the binding signal was 0.174 E-score.
With GCGGAAAC the binding signal was 0.0598 E-score.
TCCTAGAA showed a binding signal of 0.00595 E-score.
Work on ATACTCCC yielded a binding signal of 0.0875 E-score.
Work on ACGATACT yielded a binding signal of 0.17 E-score.
CGTTTTCA was tested, and the binding signal was -0.0447 E-score.
TACTCATA showed a binding signal of 0.176 E-score.
With ACGGCGTG the binding signal was -0.163 E-score.
Sequence GAAGCGGA has a binding signal of -0.239 E-score.
With GCCGTCAC the binding signal was -0.0373 E-score.
For TAGATATA, the binding signal was 0.359 E-score.
Sequence AAGCTTCG has a binding signal of -0.183 E-score.
Work on GGAAATAC yielded a binding signal of 0.233 E-score.
GAACTTCA was tested, and the binding signal was -0.0423 E-score.
AAGATGAC gave a binding signal of -0.0894 E-score.
CTCAACCC was tested, and the binding signal was -0.181 E-score.
AATCTTCA showed a binding signal of 0.0725 E-score.
Sequence GCCCGCGC has a binding signal of -0.345 E-score.
With CGCACGGC the binding signal was -0.148 E-score.
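Further: rank score from −0.5 (least bound) to 0.5 (best bound).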
